About 200 (0.47%) of roughly 43,000 compounds were called active. Another 12% or so got no clear call; they are omitted. Calls come from the whole dose curve; as a rule, active = well fitted cell-killing curve with a large enough effect; inconclusive = small, poorly fitted or top-dose-only effect, or effect the other way; inactive = flat fitted curve, though single readings scatter. Some of the results follow.
% is set by controls: 0 for no effect and ±100 for the full control effect.

A short description of this assay: Cell viability qHTS assay in S16 Pmp22-F2sN cells. Note: nearly all actives have a fitted effect of over 65% in size. Conditions: S16 Pmp22-F2sN Schwann cells (luciferase reporters placed in the Pmp22 gene) viability, CellTiter-Glo, 24 h; series mostly up to 57.5 µM; activity change, negative = cytotoxicity: at the top concentration. In a few lines:
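Luminescence from CellTiter-Glo, read by CCD camera after a 15 min room-temperature incubation, served as the viability signal. Reporter Schwann cells (S16 Pmp22-F2sN) had been treated with pin-transferred compounds for 24 h at 37C.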
(In qHTS, concentration-response curves come from the screen itself.)
Take `Cc1ccc(NC(=O)C2CCC(CNS(=O)(=O)c3cccc4nsnc34)CC2)c(C)c1` (stereo not drawn): the “activity change, negative = cytotoxicity” value was inactive: 7.38%. In the case of `Cc1ccc(C)c(Cn2c(C(C)NC(=O)c3ccccc3)nc3ccccc32)c1` (stereo not drawn), the “activity change, negative = cytotoxicity” value is inactive: 1.96%. To `Cc1nc2ccc(S(=O)(=O)N(CC(=O)Nc3cccc(C)c3C)Cc3ccccc3)cc2s1` belongs inactive: -6.67%; to `Cc1[nH]c2ccc(C(=O)NCCc3ccccc3Cl)cc2c1C`, inactive: -20.4%.

As to `Cc1cccc(NC(=O)CN2C(=O)COc3ccc(S(=O)(=O)Nc4ccccc4)cc32)c1C`, the “activity change, negative = cytotoxicity” value was inactive: 5.26%.

With `Cc1ccc(Cl)cc1N1CCN(S(=O)(=O)c2ccc3oc(=O)c4ncn(C)c4c3c2)CC1`, the “activity change, negative = cytotoxicity” value is inactive: -5.5%. The same measure for `Cc1ccccc1Cn1cc(NC(=O)c2cc(-c3ccc(Cl)cc3)on2)cn1`: inactive: 12%; for `Cc1cccc(OCC(=O)NCC2(N3CCN(C)CC3)CCCCC2)c1`: inactive: -0.124%. The same measure for `CCC1CN(C(=O)N2CCC(C(=O)NCc3ccc(C)o3)CC2)c2ccccc2O1` (stereo not drawn): inactive: 1.81%; for `COc1ccc(Nc2cc(C(=O)NCc3ccccc3)c3ccccc3n2)cc1`: inactive: 11.3%.

Take `CCCS(=O)(=O)N1CC(=O)N(c2ccccc2C)C(C)(C(=O)NC2CCCCC2)C1` (stereo not drawn): the “activity change, negative = cytotoxicity” value was inactive: -0.945%. On to `CC(C)OCCCn1c(=O)c2ccccc2n2c(-c3ccc(F)c(F)c3)nnc12`, for which the “activity change, negative = cytotoxicity” value is inactive: -2.35%.

Take `Cc1ccc(S(=O)(=O)c2nnn3c2nc(NCc2ccc(F)cc2)c2sccc23)cc1C`: the “activity change, negative = cytotoxicity” value was inactive: 10.1%. The same measure for `CCOC(=O)c1cccc(NC(=O)C2(S(=O)(=O)c3ccc(C)cc3)CC2)c1`: inactive: -3.21%. To `COc1cccc(C(=O)Nc2ccc(-c3nc4ccc(C)cc4s3)cc2)c1OC` belongs inactive: -2.72%.

Regarding `COc1cn(CC(=O)Nc2ccc(C)cc2C)c(CN2CCCCC2)cc1=O`, the “activity change, negative = cytotoxicity” value is inactive: 5.56%. As to `CCOc1ccc(C2c3c(oc4ccccc4c3=O)C(=O)N2Cc2ccc3c(c2)OCO3)cc1` (stereo not drawn), the “activity change, negative = cytotoxicity” value is inactive: 1.98%. To `Cc1ccc(Nc2c(-c3ccc(N4CCOCC4)cc3)nc3ccc(Cl)cn23)cc1` belongs inactive: 0.466%; to `Cc1cc2c(cc1S(=O)(=O)N1CCC(C(N)=O)CC1)OCC(=O)N2`, inactive: 6.95%.

In the case of `Cc1cc(C)c(NC(=O)Cn2nnc(-c3nc(-c4ccncc4)no3)c2N)c(C)c1`, the “activity change, negative = cytotoxicity” value is inactive: 0.194%.

With `CC(=O)C1=C(c2ccc(C)cc2)N(C(C)=O)n2c(nnc2-c2ccccc2)S1`, the “activity change, negative = cytotoxicity” value was inactive: -0.993%. To `COc1ccc(S(=O)(=O)NCC(c2ccc(N(C)C)cc2)N2CCCC2)cc1F` (stereo not drawn) belongs inactive: 3.74%. To `CCOc1cccc(C2c3c(oc4ccc(F)cc4c3=O)C(=O)N2CCOC)c1` (stereo not drawn) belongs inactive: 0.974%; to `CCCNC(=O)C1CCC(Cn2c(=O)c3sccc3n(CC(=O)N3CCCC(C)C3)c2=O)CC1` (stereo not drawn), inactive: 7.67%; to `O=C(O)c1cccc(NC(=O)c2cccc(S(=O)(=O)Nc3cccc(F)c3)c2)c1`, inactive: 3.73%. In the case of `Cc1ccc(N2CCN(c3nc4ccccc4n4nnnc34)CC2)c(C)c1`, the “activity change, negative = cytotoxicity” value was inactive: 11.8%. To `COc1cccc(C(=O)Nc2ccccc2SCc2cc(=O)c3cccc(C)c3[nH]2)c1` belongs inactive: 11.1%; to `Cc1cc(C)cc(NC(=O)c2cc(S(=O)(=O)N3CCOCC3)cn2C)c1`, inactive: -6.18%; to `Cc1ccc(NC(=O)C2CCN(c3ncccn3)CC2)cc1F`, inactive: 8.19%. Turning to `COc1ccccc1OCCn1c(NC(=O)c2ccccc2)nc2ccccc21`, the “activity change, negative = cytotoxicity” value is inactive: -4.64%. With `Cc1ccc(-n2c(SCC(N)=O)nc3c(oc4ccccc43)c2=O)cc1`, the “activity change, negative = cytotoxicity” value is inactive: 3.49%. The same measure for `Cc1ccc(CCNC(=O)c2ccc(Cn3c(=O)c4cccn4c4cccnc43)cc2)cc1`: inactive: -3.52%.

In the case of `CCn1c(CNC(=O)C23CC4CC(CC(C4)C2)C3)nnc1SCC(=O)Nc1ccc(OC)cc1`, the “activity change, negative = cytotoxicity” value is inactive: 9.9%.

With `O=C(COc1cccc(Cl)c1)N1CCC(c2nc3ccccc3s2)CC1`, the “activity change, negative = cytotoxicity” value is inactive: -0.449%. To `CCOc1ccccc1NC(=O)C(C)n1nnc2sc3c(c2c1=O)CCCC3` (stereo not drawn) belongs inactive: 0.597%. To `CCC12CN3CC(C)(CN(C1)C3c1c[nH]c3ccc(OC)cc13)C2=O` (stereo not drawn) belongs inactive: 8.39%; to `Cc1ccccc1NC(=O)Cn1c(=O)n(CCC(=O)NCc2ccc3c(c2)OCO3)c(=O)c2sccc21`, inactive: 4.56%. On to `CC(=O)N1CCc2cc(CNS(=O)(=O)c3ccc(C(C)(C)C)cc3)ccc21`, for which the “activity change, negative = cytotoxicity” value was inactive: 0.381%.

For `O=C1CN(C(=O)c2ccc(S(=O)(=O)N3CCCCC3)cc2)C(c2ccc(F)cc2)c2cc(Br)ccc2N1` (stereo not drawn), the “activity change, negative = cytotoxicity” value was inactive: -16.5%. The same measure for `CCN(CC)C(=O)c1sc2c(c1C)c(=O)n(-c1ccc(C)c(C)c1)c(=O)n2Cc1cccc(Cl)c1`: inactive: 15.2%; for `CCOC(=O)C1CCCN(C(=O)CCS(=O)(=O)c2cc3c(cc2Cl)NC(=O)CO3)C1` (stereo not drawn): inactive: 26.3%. For the compound `CCC(Sc1nc2cc3c(cc2c(=O)n1CCCC(=O)NCc1ccc(OC)cc1)OCO3)C(=O)NCCCOC` (stereo not drawn), the “activity change, negative = cytotoxicity” value is inactive: -12.9%. For the compound `Cc1ccc(OCC(=O)Nc2ccc3nc(SCC(=O)N4CCOCC4)sc3c2)cc1C`, the “activity change, negative = cytotoxicity” value was inactive: -1.65%.

Take `Cc1ccc2cccc(NC(=O)c3ccc(C#N)cc3F)c2n1`: the “activity change, negative = cytotoxicity” value is inactive: 8.64%. To `Cc1ccccc1C(=O)NC1(C(F)(F)F)N=C(c2ccccc2)N(Cc2ccccc2)C1=O` (stereo not drawn) belongs inactive: -14.1%; to `COc1cccc(-c2cc(C(F)(F)F)n3nc(C)c(-c4ccccc4)c3n2)c1`, inactive: 19.3%; to `CCn1ccc2cc(S(=O)(=O)N3CCCN(C(=O)NCC(=O)OC)CC3)ccc21`, inactive: -1.63%.

Turning to `Cc1ccc2nc(COc3cccc(NC(=O)c4cccc(Cl)c4)c3)cc(=O)n2c1`, the “activity change, negative = cytotoxicity” value is inactive: 20.5%.

Source of the values: PubChem BioAssay AID1508642 (National Center for Advancing Translational Sciences (NCATS), 2021).
